# Assay results: the supplement of paper PMC8728848
# The other results are listed elsewhere or left out.
# B1: EPL1 (Trichoderma atroviride), A0PCX2 (protein)
# chain: MQLSNLFKLALFTAAVSADTVSYDTGYDDASRSLTVVSCSDGTNGLITRYHWQTQGQIPRFPYIGGAQAVAGWNSPNCGTCWKLTYSGKTIYVLAIDHTAAGFNIGLDAMNALTNGNAVALGRVSATASQVAVSNCGL
# What was measured:
# Assay in all cases: glycan array binding signal (z-score within array); higher = stronger binding
# Conditions in all cases: glycan notation: IUPAC condensed, linker removed
# [1] = biological target: GlcNAc(b1-4)GlcNAc(b1-4)GlcNAc(b1-4)GlcNAc(b1-4)GlcNAc
# In short: (§1)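 Arrays were curated from the Consortium for Functional Glycomics database, 3228 in total, and kept only where the protein sequence was available. Binding is expressed as a within-array Z-score. This score was averaged across arrays of the same protein sequence at different concentrations or buffers and across linkers, and negative values can be read as non-binding.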
# [2] = biological target: GlcNAc(b1-4)GlcNAc(b1-4)GlcNAc(b1-4)GlcNAc(b1-4)GlcNAc(b1-4)GlcNAc
# In short: as §1
# [3] = biological target: GlcNAc(b1-4)[GlcNAc(b1-6)]GalNAc
# In short: as §1
# [4] = biological target: GlcNAc(b1-6)Gal(b1-4)GlcNAc
# In short: as §1
# GlcNAc(b1-6)GalNAc = biological target: GlcNAc(b1-6)GalNAc
# In short: as §1
# [5] = biological target: GlcNAc6S(b1-3)Gal(b1-4)GlcNAc
# In short: as §1
# Kdn(a2-3)Gal(b1-3)GalNAc = biological target: Kdn(a2-3)Gal(b1-3)GalNAc
# In short: as §1
# Kdn(a2-3)Gal(b1-3)GlcNAc = biological target: Kdn(a2-3)Gal(b1-3)GlcNAc
# In short: as §1
# Kdn(a2-3)Gal(b1-4)Glc = biological target: Kdn(a2-3)Gal(b1-4)Glc
# In short: as §1
# Kdn(a2-3)Gal(b1-4)GlcNAc = biological target: Kdn(a2-3)Gal(b1-4)GlcNAc
# In short: as §1
# [6] = biological target: Kdn(a2-3)Gal(b1-4)[Fuc(a1-3)]GlcNAc
# In short: as §1
# Kdn(a2-6)Gal(b1-4)GlcNAc = biological target: Kdn(a2-6)Gal(b1-4)GlcNAc
# In short: as §1
# [7] = biological target: Man(a1-2)Man(a1-2)Man(a1-3)Man
# In short: as §1
# [8] = biological target: Man(a1-2)Man(a1-2)Man(a1-6)[Man(a1-3)]Man
# In short: as §1
# Man(a1-2)Man(a1-3)Man = biological target: Man(a1-2)Man(a1-3)Man
# In short: as §1
# [9] = biological target: Man(a1-2)Man(a1-3)[Man(a1-2)Man(a1-6)]Man
# In short: as §1
# [10] = biological target: Man(a1-2)Man(a1-3)[Man(a1-2)Man(a1-6)]Man(a1-6)[Man(a1-2)Man(a1-2)Man(a1-3)]Man
# In short: as §1
# [11] = biological target: Man(a1-2)Man(a1-3)[Man(a1-2)Man(a1-6)]Man(a1-6)[Man(a1-2)Man(a1-2)Man(a1-3)]Man(b1-4)GlcNAc(b1-4)GlcNAc
# In short: as §1
# [12] = biological target: Man(a1-2)Man(a1-3)[Man(a1-6)]Man(a1-6)[Man(a1-2)Man(a1-3)]Man(b1-4)GlcNAc(b1-4)GlcNAc
# In short: as §1
# [13] = biological target: Man(a1-2)Man(a1-6)[Man(a1-3)]Man(a1-6)[Man(a1-2)Man(a1-2)Man(a1-3)]Man
# In short: as §1
# [14] = biological target: Man(a1-2)Man(a1-6)[Man(a1-3)]Man(a1-6)[Man(a1-2)Man(a1-2)Man(a1-3)]Man(b1-4)GlcNAc(b1-4)GlcNAc
# In short: as §1
# Man(a1-3)[Man(a1-6)]Man = biological target: Man(a1-3)[Man(a1-6)]Man
# In short: as §1
# [15] = biological target: Man(a1-3)[Man(a1-6)]Man(a1-6)[Man(a1-2)Man(a1-3)]Man(b1-4)GlcNAc(b1-4)GlcNAc
# In short: as §1
# [16] = biological target: Man(a1-3)[Man(a1-6)]Man(a1-6)[Man(a1-3)]Man
# In short: as §1
# [17] = biological target: Man(a1-3)[Man(a1-6)]Man(a1-6)[Man(a1-3)]Man(b1-4)GlcNAc(b1-4)GlcNAc
# In short: as §1
# [18] = biological target: Man(a1-3)[Man(a1-6)]Man(b1-4)GlcNAc(b1-4)GlcNAc
# In short: as §1
# [19] = biological target: Man(a1-3)[Man(a1-6)]Man(b1-4)GlcNAc(b1-4)[Fuc(a1-6)]GlcNAc
# In short: as §1
# Man(a1-6)Man = biological target: Man(a1-6)Man
# In short: as §1
# Man(b1-4)GlcNAc = biological target: Man(b1-4)GlcNAc
# In short: as §1
# MurNAc(b1-4)GlcNAc = biological target: MurNAc(b1-4)GlcNAc
# In short: as §1
# Neu5Ac(a2-3)Gal = biological target: Neu5Ac(a2-3)Gal
# In short: as §1
# [20] = biological target: Neu5Ac(a2-3)Gal(b1-3)GalNAc
# In short: as §1
# [21] = biological target: Neu5Ac(a2-3)Gal(b1-3)GalNAc(b1-3)Gal(a1-4)Gal(b1-4)Glc
# In short: as §1
# [22] = biological target: Neu5Ac(a2-3)Gal(b1-3)GalNAc(b1-4)[Neu5Ac(a2-3)]Gal(b1-4)Glc
# In short: as §1
# [23] = biological target: Neu5Ac(a2-3)Gal(b1-3)GalNAc(b1-4)[Neu5Ac(a2-8)Neu5Ac(a2-3)]Gal(b1-4)Glc
# In short: as §1
# [24] = biological target: Neu5Ac(a2-3)Gal(b1-3)GalNAc6S
# In short: as §1
# [25] = biological target: Neu5Ac(a2-3)Gal(b1-3)GlcNAc
# In short: as §1
# [26] = biological target: Neu5Ac(a2-3)Gal(b1-3)GlcNAc(b1-2)Man
# In short: as §1
# [27] = biological target: Neu5Ac(a2-3)Gal(b1-3)GlcNAc(b1-2)Man(a1-3)[GlcNAc(b1-4)][Neu5Ac(a2-3)Gal(b1-3)GlcNAc(b1-2)Man(a1-6)]Man(b1-4)GlcNAc(b1-4)GlcNAc
# In short: as §1
# [28] = biological target: Neu5Ac(a2-3)Gal(b1-3)GlcNAc(b1-2)Man(a1-3)[Neu5Ac(a2-3)Gal(b1-3)GlcNAc(b1-2)Man(a1-6)]Man(b1-4)GlcNAc(b1-4)GlcNAc
# In short: as §1
# [29] = biological target: Neu5Ac(a2-3)Gal(b1-3)GlcNAc(b1-3)Gal(b1-3)GlcNAc
# In short: as §1
# [30] = biological target: Neu5Ac(a2-3)Gal(b1-3)GlcNAc(b1-3)Gal(b1-4)GlcNAc
# In short: as §1
# [31] = biological target: Neu5Ac(a2-3)Gal(b1-3)GlcNAc(b1-3)GalNAc
# In short: as §1
# [32] = biological target: Neu5Ac(a2-3)Gal(b1-3)GlcNAc(b1-4)Gal(b1-4)Glc
# In short: as §1
# [33] = biological target: Neu5Ac(a2-3)Gal(b1-3)GlcNAc(b1-6)GalNAc
# In short: as §1
binder,measurement,setting,value
B1,glycan array binding signal (z-score),[1],-0.177
same,glycan array binding signal (z-score),[2],-0.489
same,glycan array binding signal (z-score),[3],0.321
same,glycan array binding signal (z-score),[4],-0.108
same,glycan array binding signal (z-score),GlcNAc(b1-6)GalNAc,-0.373
same,glycan array binding signal (z-score),[5],-0.471
same,glycan array binding signal (z-score),Kdn(a2-3)Gal(b1-3)GalNAc,0.117
same,glycan array binding signal (z-score),Kdn(a2-3)Gal(b1-3)GlcNAc,-0.354
same,glycan array binding signal (z-score),Kdn(a2-3)Gal(b1-4)Glc,-0.096
same,glycan array binding signal (z-score),Kdn(a2-3)Gal(b1-4)GlcNAc,-0.521
same,glycan array binding signal (z-score),[6],-0.322
same,glycan array binding signal (z-score),Kdn(a2-6)Gal(b1-4)GlcNAc,0.395
same,glycan array binding signal (z-score),[7],-0.108
same,glycan array binding signal (z-score),[8],-0.099
same,glycan array binding signal (z-score),Man(a1-2)Man(a1-3)Man,-0.013
same,glycan array binding signal (z-score),[9],0.151
same,glycan array binding signal (z-score),[10],-0.315
same,glycan array binding signal (z-score),[11],-0.345
same,glycan array binding signal (z-score),[12],-0.48
same,glycan array binding signal (z-score),[13],-0.213
same,glycan array binding signal (z-score),[14],-0.097
same,glycan array binding signal (z-score),Man(a1-3)[Man(a1-6)]Man,-0.477
same,glycan array binding signal (z-score),[15],-0.286
same,glycan array binding signal (z-score),[16],-0.677
same,glycan array binding signal (z-score),[17],0.034
same,glycan array binding signal (z-score),[18],-0.275
same,glycan array binding signal (z-score),[19],0.224
same,glycan array binding signal (z-score),Man(a1-6)Man,0.009
same,glycan array binding signal (z-score),Man(b1-4)GlcNAc,0.021
same,glycan array binding signal (z-score),MurNAc(b1-4)GlcNAc,-0.51
same,glycan array binding signal (z-score),Neu5Ac(a2-3)Gal,-0.124
same,glycan array binding signal (z-score),[20],-0.296
same,glycan array binding signal (z-score),[21],-0.084
same,glycan array binding signal (z-score),[22],0.173
same,glycan array binding signal (z-score),[23],0.49
same,glycan array binding signal (z-score),[24],0.354
same,glycan array binding signal (z-score),[25],0.189
same,glycan array binding signal (z-score),[26],-0.068
same,glycan array binding signal (z-score),[27],-0.065
same,glycan array binding signal (z-score),[28],0.58
same,glycan array binding signal (z-score),[29],-0.271
same,glycan array binding signal (z-score),[30],0.055
same,glycan array binding signal (z-score),[31],-0.457
same,glycan array binding signal (z-score),[32],-0.475
same,glycan array binding signal (z-score),[33],0.388
